# Reference: PubChem BioAssay AID488969 (Vanderbilt High Throughput Screening Facility, 2010)
# The full ranking holds about 110,000 compounds; the median of “z-score” is about -0.1, and the highest 2% start at about 2. Some of the results follow. Active and inactive are the calls of the source.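 The calls were made as follows: active = z-score in the third read window above 3 or below -3; inactive = the rest.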
# Target: Metabotropic glutamate receptor 8 (Rattus norvegicus) (UniProt P70579)
# Test: rat mGluR8 modulators via GIRK flux, primary screen, cell-based, thallium flux, HTS (AID 488969)
# Settings: HEK293 rat mGluR8, GIRK (G protein-gated inwardly rectifying potassium channel) thallium flux, FluoZin2; at 10 µM; stronger effect = higher value; submaximal glutamate (EC20) added with thallium
# Sequence of UniProt P70579 (P70579 whole entry, looked up): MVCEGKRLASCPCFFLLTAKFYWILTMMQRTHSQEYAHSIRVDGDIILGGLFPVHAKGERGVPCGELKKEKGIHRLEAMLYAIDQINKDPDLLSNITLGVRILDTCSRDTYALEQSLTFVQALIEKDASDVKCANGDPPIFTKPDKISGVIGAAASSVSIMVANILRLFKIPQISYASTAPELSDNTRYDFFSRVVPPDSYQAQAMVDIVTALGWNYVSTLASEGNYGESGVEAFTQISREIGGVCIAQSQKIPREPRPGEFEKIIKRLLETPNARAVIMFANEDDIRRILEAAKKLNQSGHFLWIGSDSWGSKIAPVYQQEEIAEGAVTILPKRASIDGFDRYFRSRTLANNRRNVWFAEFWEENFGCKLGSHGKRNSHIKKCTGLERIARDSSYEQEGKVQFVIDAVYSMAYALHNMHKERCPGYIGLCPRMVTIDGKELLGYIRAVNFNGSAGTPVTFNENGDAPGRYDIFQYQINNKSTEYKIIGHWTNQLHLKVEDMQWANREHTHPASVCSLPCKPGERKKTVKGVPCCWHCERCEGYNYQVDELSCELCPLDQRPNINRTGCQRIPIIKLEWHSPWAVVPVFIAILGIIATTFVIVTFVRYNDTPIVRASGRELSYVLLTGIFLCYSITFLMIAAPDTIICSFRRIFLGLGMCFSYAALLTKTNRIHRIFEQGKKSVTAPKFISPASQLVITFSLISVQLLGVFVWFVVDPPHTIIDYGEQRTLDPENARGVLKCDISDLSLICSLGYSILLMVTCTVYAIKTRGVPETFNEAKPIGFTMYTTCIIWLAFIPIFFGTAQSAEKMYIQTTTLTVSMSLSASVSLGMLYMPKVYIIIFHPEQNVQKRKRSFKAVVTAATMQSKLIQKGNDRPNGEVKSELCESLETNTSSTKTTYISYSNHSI
row,SMILES,z-score
1,Cc1nn(CC(=O)Nc2ccc(Cl)c(S(=O)(=O)N(C)C)c2)c(C)c1[N+](=O)[O-],active: 4.55
2,Cc1ccccc1-n1c(SCC(=O)Nc2ccccc2)nc2nc3c(cc2c1=O)CCCC3,-1.08
3,Cc1ccc(-c2noc(CCCN3C(=O)c4ccccc4C3=O)n2)cc1,-0.123
4,Cc1ccc(N(CC(=O)N2CC(=O)Nc3ccccc32)S(=O)(=O)c2ccc3c(c2)OCCO3)cc1,0.116
5,CSc1cccc(NC(=O)COc2ccccc2)c1,1.69
6,O=C(COC(=O)c1cccc(S(=O)(=O)N2CCc3ccccc32)c1)Nc1ncc(C(F)(F)F)cc1Cl,-0.756
7,COc1ccc(NC(C)=O)cc1NC(=O)CN1CCN(C2c3ccccc3-c3ccccc32)CC1,-1.67
8,Cc1cc(C)nc(SCCn2c(N3CCCCC3)nc3c2c(=O)n(C)c(=O)n3C)n1,0.56
9,Cc1cc(=O)[nH]c(SCC(=O)N2CCc3ccccc3C2)n1,-0.254
10,CC1(c2ccccc2)CC(C)(C)N(C(=O)C2CCCO2)c2ccccc21 (stereo not drawn),0.403
11,Cc1cc(=O)oc2c(CN(CC(C)C)CC(C)C)c(O)ccc12,-0.00464
12,Cc1[nH]c2ccc(-c3nnc(SCC(=O)NCc4ccco4)n3Cc3ccccc3)cc2c1C,-1.63
13,O=C(CCn1nc(-c2ccccc2)c2ccccc2c1=O)NCC1CCCO1 (stereo not drawn),-0.116
14,COc1cc(/C(C#N)=C/c2ccccc2)c([N+](=O)[O-])cc1OC,-0.517
15,O=C(Nc1ccc(Br)c(Cl)c1)c1ccco1,-0.583
16,CCOC(=O)c1c(C)[nH]c(C=Nc2ccc(OC)cc2)c1O,-0.0113
17,C/C(Cn1nnc2ccccc21)=N\NC(=O)c1cccc(Br)c1,-0.164
18,OCc1cn(-c2ccccc2)nc1-c1ccco1,0.242
19,O=C(NC1CC1)c1ccc2c3c(cccc13)CC2,-0.311
20,CC(C)(C)c1ccc(-c2cc(N)n[nH]2)cc1,0.498
21,COc1cc(C2C3=C(CC(C)(C)CC3=O)OC(N)=C2[N+](=O)[O-])ccc1O (stereo not drawn),0.159
22,CCN(CC(=O)NC1CCCC1)S(=O)(=O)c1ccc(C)cc1,-0.122

row,SMILES,z-score
1,COc1ccc(S(=O)(=O)N(C)CC(=O)Nc2ccc3c(c2)OCO3)cc1,0.0177
2,COC(=O)c1ccc(CSc2nc3c(c(=O)n2-c2ccc(Br)cc2)SCC3)o1,-0.947
3,Cc1[nH]c2ccccc2c1C(=O)CSC(=S)N(C)C,1.75
4,CCOc1ccc(CCNC(=O)CCc2c(C)nc3ncnn3c2C)cc1OCC,-0.26
5,Brc1ccc(-c2nnc3sc(CN4CCC5(CC4)OCCO5)cn23)cc1,-0.287
6,Cc1cc(N2CCN(C(=O)OC(C)(C)C)CC2)n2ncnc2n1,-0.75
7,COc1cccc(-c2nc(CS(=O)CC(=O)NC3CC3)c(C)o2)c1 (stereo not drawn),-0.0157
8,COC(=O)c1ccc(COC(=O)CNC(=O)c2ccco2)cc1,0.327
9,COC(=O)c1cc2ccc(OC)c(OC)c2c(=O)s1,0.0942
10,O=C(NCCO)c1cccc(Nc2nc(-c3ccccc3)c3cc(Cl)ccc3n2)c1,-0.336
11,O=C(O)c1cc2n(n1)C(C(F)(F)F)CC(c1ccco1)N2 (stereo not drawn),0.315
12,C=CCn1c(SCC(=O)NCc2ccco2)nnc1-c1ccc2ccccc2n1,-0.786
13,COc1ccc(C(c2nnnn2Cc2ccccc2)N2CCN(C(=O)c3ccco3)CC2)cc1 (stereo not drawn),-1.98
14,COc1ccc2[nH]c(=O)c(CN(C(=O)NC3CCCCC3)C3CCCC3)cc2c1,-0.443
15,CCCCC(=O)NC(c1ccc([N+](=O)[O-])cc1)c1c(O)ccc2ccccc12 (stereo not drawn),-0.000474
16,Cc1cc[n+](-c2nc([O-])sc2/C=N/Nc2ccc([N+](=O)[O-])cc2)cc1,0.255
17,CCOc1cc(CNCc2ccccn2)ccc1OCC(=O)NC1CCCCC1,-0.535
18,O=C(Nc1ccc(CN2CCOCC2)cc1)c1ccccc1F,-0.0109
19,COc1ccc(Cl)cc1CN1CCN(c2nc(C)cc(C)c2C#N)CC1,-0.333
20,COc1cc(N/C=C(\C(C)=O)c2ccccc2)cc(OC)c1,-0.663
21,COc1ccc(C(=O)Nc2cccnc2)cc1OC,-0.0486
22,Cc1ccc(NC(=O)c2ccc(-c3nn(C)c(=O)c4ccccc34)cc2)c(C)c1,-0.362

row,SMILES,z-score
1,CCC(=O)Nc1ccccc1Sc1ncnc2scc(-c3ccccc3)c12,-0.77
2,Cc1nn(-c2ccccc2)c(C)c1C(=O)OC/C(O)=C(\C#N)c1nc2ccccc2[nH]1,-0.394
3,Cc1ccccc1NC(=O)c1c(F)c(F)c(F)c(F)c1F,0.404
4,O=C(Nc1ccccn1)C1(c2ccccc2)CCCC1,-0.498
5,Nc1cc2nsnc2cc1Br,-0.0144
6,COc1ccccc1NC(=O)CNC(=O)c1ccc(F)cc1,0.0471
7,CCCOc1ccc(/C(O)=C2/C(=O)C(=O)N(CCOC)C2c2cccnc2)cc1 (stereo not drawn),-1.65
8,CCN1C(=O)N(CC)C2NC(=S)NC21 (stereo not drawn),0.386
9,CN1CCN(C(c2cccc(C(F)(F)F)c2)c2nnnn2C(C)(C)C)CC1 (stereo not drawn),0.181
10,O=C(NCC(=O)N(Cc1ccccc1)C(C(=O)NC1CCCC1)c1cccnc1)c1ccco1 (stereo not drawn),-0.0981
11,CCC(C)C(NC(=O)C1CCC(C)CC1)C(=O)NC(C(=O)OC)C(C)C (stereo not drawn),-0.134
12,COC(=O)CNS(=O)(=O)c1ccc(C)cc1,0.036
13,CC(=O)c1ccc(NC(=O)CN2C(=O)/C(=C/C=C/c3ccccc3)SC2=S)cc1,-0.117
14,COc1cc(NC(=O)c2ccc(C)cc2)c(OC)cc1NC(=O)CN1CCCCC1,2.37
15,CCOC(=O)Nc1ccc2c(c1)N(C(=O)CCN1CCOCC1)c1ccccc1S2,0.00279
16,COc1ccc(S(=O)(=O)N2CC3CCCN3c3ccc(C(F)(F)F)cc32)cc1 (stereo not drawn),0.596
17,COc1ccc(S(=O)(=O)Nc2ccc(O)c(Sc3nc4ccccc4s3)c2)cc1,-0.313
18,COC(=O)C1CCN(C(=O)c2ccccc2NC(C)=O)CC1,0.648
19,Cc1csc2nc(CNS(=O)(=O)c3ccc4c(c3)OCCO4)cn12,-0.405
20,CCCc1[nH]n(-c2nc3ccccc3s2)c(=O)c1C=NCC1CCCO1 (stereo not drawn),-0.373
21,Cc1c(Cl)c(C(=O)NNC(=S)Nc2ccccc2)nn1C,0.0403
22,CCOc1ccc(N(CC(=O)Nc2cccc(OC)c2)S(=O)(=O)c2c(C)noc2C)cc1,0.0981

row,SMILES,z-score
1,CCn1c(SC(C)C)nnc1C1CCN(S(=O)(=O)c2ccc(OC)cc2)CC1,-0.256
2,O=C(CSc1nnc(C2CC2)n1Cc1ccccc1)c1ccc(S(=O)(=O)N2CCOCC2)cc1,0.166
3,Cc1ccc(/C=N/NC(=O)c2cccc([N+](=O)[O-])c2)o1,-0.121
4,COc1ccccc1C(O)(C(=O)NN(C)c1ccccc1)c1ccccc1OC,-0.467
5,CCOc1ccccc1NC(=O)CCCN1C(=S)NC(C)(C)CC1C (stereo not drawn),-0.565
6,COCCCN(C(=O)Nc1ccccc1)C(C)c1ccncc1 (stereo not drawn),-0.179
7,O=C(O)c1cccc(NC(=O)c2cn(-c3ccccc3)nc2-c2cc3ccccc3o2)c1,-0.504
8,CCOc1c(Br)cc(C2NS(=O)(=O)N=C3CCCCCN32)cc1OC (stereo not drawn),0.364
9,Cn1c(CNc2ccc(Cl)cc2)nc2ccccc21,-0.327
10,CC1(C)CC(=O)c2cnn(-c3nc4ccccc4[nH]3)c2C1,0.463
11,O=C(/C=C/c1ccc(S(=O)(=O)NCc2ccco2)cc1)NCc1cccc(Cl)c1,-0.451
12,Nc1c(O)ccc2c1C(=O)c1ccccc1C2=O,-0.0265
13,O=C(Nc1c(Cl)cc(Cl)cc1C(=O)NCC1CCCO1)c1ccco1 (stereo not drawn),0.151
14,CC1(C)C(=O)Nc2ccccc2N1C(=O)COC(=O)c1ccc(Cl)c(S(=O)(=O)NCc2ccccc2)c1,-0.107
15,Cc1[nH]n(-c2cccc(Cl)c2)c(=O)c1C=NC12CN3CN(CN(C3)C1)C2,-0.312
16,Cn1c(SCC(=O)c2ccccc2)nnc1-c1cccc(N)c1,-0.165
17,CCC(C)(C)n1nnnc1C(c1ccc(C)cc1)N1CCC(C)CC1 (stereo not drawn),0.341
18,S=C(NCCCN1CCOCC1)Nc1ccc(Cl)cc1,-0.154
19,Cc1ccccc1C(=O)NNC(=S)NC(=O)c1ccccc1,active: 3.78
20,c1ccc2c(c1)oc1c(NCC3CCCO3)ncnc12 (stereo not drawn),0.655
21,CCN(C(=O)CN(C)Cc1cccc(Cl)c1Cl)c1c(N)n(Cc2ccccc2)c(=O)[nH]c1=O,-0.301
22,CN(C(=O)c1ccccn1)c1nnc(-c2ccccn2)s1,2.29

row,SMILES,z-score
1,CCn1cc([N+](=O)[O-])c(C(=O)Nc2c(C)nn(Cc3c(F)c(F)c(F)c(F)c3F)c2C)n1,0.0235
2,CCOC(=O)c1ccc(Nc2nc(=O)c3cccnc3s2)cc1,-0.132
3,COCCCNC(=O)Cn1nnc(-c2ccccc2NC(=O)c2ccccc2F)n1,-0.165
4,COCCNC(=O)c1cc2c3ccccc3n(C)c2s1,-0.192
5,O=S(=O)(O)c1nc2ccccc2n1Cc1ccccc1,-0.221
6,CCOC(=O)c1nnc(-c2cccs2)nc1Oc1ccccc1C(=O)OC,-0.554
7,Cc1ccc(NC(=O)Cc2nnc(SCC(=O)c3ccc(Br)cc3)n2C)cc1,0.0995
8,S=C(NCc1cccnc1)Nc1cccc(Cl)c1,0.237
9,Cc1ccc(-c2nnc(SCc3ccc(C#N)cc3)n2Cc2ccco2)cc1,0.0444
10,COC(=O)c1c(NC(=S)NC(=O)c2ccco2)sc2c1CCCC2,active: 3.53
11,CCCc1c(CC)c(=N)c2ccccc2n1C,0.0798
12,COc1nc(NC2CCCCC2)nc(N2CCCCCC2)n1,0.939
13,Cc1ccc(-c2cc(-c3ccccc3)nc(Cl)n2)cc1,0.178
14,Nc1nc(N2C(=O)C3CC=CCC3C2=O)nn1-c1ccccc1 (stereo not drawn),-0.0994
15,CC(C(=O)NCC1CCCCC1)N1CCN(S(=O)(=O)/C=C/c2ccccc2)CC1 (stereo not drawn),-0.564
16,C=CCNC(=O)Nc1ccc2oc(C)nc2c1,-0.283
17,O=C(NCc1cccnc1)c1ccc(COc2ccc3c(c2)CCC3)o1,1.12
18,Cc1ccc2cc(CCNC(=O)c3c(-c4ccccc4Cl)noc3C)c(=O)[nH]c2c1,-0.412
19,CCOC(=O)c1cnc2c(N=Nc3cccc(Cl)c3)c(N)nn2c1N,0.153
20,COc1ccccc1CN(Cc1cc2c(C)ccc(C)c2[nH]c1=O)Cc1nnnn1Cc1ccco1,0.414
